According to paper PMC4336329 (PLoS ONE, 2015):
The campaign covered roughly 310,000 compounds. About 14,000 (4.5%) showed an effect of 50% or more. The effect is printed as a negative number. The list shows a part of the results.

Biological target: human ether-à-go-go-related gene (hERG) potassium channel (human, UniProt Q12809)
Experiment: primary screen, population patch clamp on CHO cells stably expressing hERG
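Note: peak tail current of the secondary pulse compared with the same well before compound.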

Sequence of human ether-à-go-go-related gene (hERG) potassium channel (Q12809 whole entry, looked up): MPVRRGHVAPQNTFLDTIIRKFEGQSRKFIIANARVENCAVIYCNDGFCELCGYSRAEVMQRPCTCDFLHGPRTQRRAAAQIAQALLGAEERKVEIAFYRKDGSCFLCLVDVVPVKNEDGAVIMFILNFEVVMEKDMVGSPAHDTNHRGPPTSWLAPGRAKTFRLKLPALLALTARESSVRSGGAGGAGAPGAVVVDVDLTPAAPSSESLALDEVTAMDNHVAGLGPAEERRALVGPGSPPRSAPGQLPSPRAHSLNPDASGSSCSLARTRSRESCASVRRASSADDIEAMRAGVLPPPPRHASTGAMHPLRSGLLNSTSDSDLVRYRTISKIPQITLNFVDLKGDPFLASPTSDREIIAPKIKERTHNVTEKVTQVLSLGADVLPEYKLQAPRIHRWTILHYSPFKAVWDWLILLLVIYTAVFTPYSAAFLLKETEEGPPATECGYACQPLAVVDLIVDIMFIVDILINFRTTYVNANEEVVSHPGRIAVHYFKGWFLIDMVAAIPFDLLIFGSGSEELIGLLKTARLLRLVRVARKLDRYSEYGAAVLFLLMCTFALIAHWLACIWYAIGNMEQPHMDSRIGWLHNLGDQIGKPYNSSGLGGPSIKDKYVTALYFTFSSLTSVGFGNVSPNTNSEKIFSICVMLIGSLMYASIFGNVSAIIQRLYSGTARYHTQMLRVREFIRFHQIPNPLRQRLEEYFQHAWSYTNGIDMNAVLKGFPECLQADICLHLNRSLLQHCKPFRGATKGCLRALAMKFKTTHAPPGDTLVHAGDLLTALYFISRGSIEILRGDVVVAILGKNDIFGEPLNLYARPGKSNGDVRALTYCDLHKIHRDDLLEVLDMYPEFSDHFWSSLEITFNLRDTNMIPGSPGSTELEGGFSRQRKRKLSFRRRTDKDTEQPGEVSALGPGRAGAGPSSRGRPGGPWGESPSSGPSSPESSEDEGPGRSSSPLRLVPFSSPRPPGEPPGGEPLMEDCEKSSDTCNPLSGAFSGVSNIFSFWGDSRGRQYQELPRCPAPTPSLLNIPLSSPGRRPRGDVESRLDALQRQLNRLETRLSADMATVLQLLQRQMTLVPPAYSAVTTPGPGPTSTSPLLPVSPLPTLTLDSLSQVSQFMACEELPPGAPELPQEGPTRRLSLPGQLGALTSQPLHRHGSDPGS

SMILES	hERG current change (%, negative = inhibition) at 10uM [%]
C[C@H]1[C@H](C)CC[C@]2(C)CC[C@]3(C)C(=CC(=O)C4[C@@]5(C)CC[C@H](O)C(C)(C)C5CC[C@]43C)[C@H]12 (stereo partly drawn)	25.5
Nc1ccc(S(=O)(=O)NCC(=O)OCCOc2ccccc2)cc1[N+](=O)[O-]	3.37
OCC1(Cc2ccccc2F)CCCN(CCc2ccccc2)C1 (stereo not drawn)	-74.8
CCN1C(Nc2ccccc2)=NC[C@@H]1Cc1ccccc1	-26
CC1CN(Cc2ccc(Cl)cc2Cl)CC(C)O1 (stereo not drawn)	14.6
COC(=O)CN1C(=O)[C@H]2[C@@H](c3ccc(C)o3)N3C(=O)CN(CCO)C(=O)[C@@]3(C)[C@H]2C1=O	-2.13
COC(=O)COc1ccccc1C(=O)Nc1ccc(OC)cc1	-12
NS(=O)(=O)c1ccc(NC(=S)Nc2ccc(C(=O)N3CCCCC3)cc2)cc1	8.99
Fc1ccccc1CNc1ccc(Cl)cc1	-8.14
CCOc1ccccc1NC(=O)CCCNC(=O)c1ccc(Cl)cc1	-1.75
Cc1c(C(=O)N2CCc3ccccc3C2)oc2ccccc12	-28
COc1ccc(S(=O)(=O)NCC(c2ccco2)N2CCc3ccccc3C2)cc1 (stereo not drawn)	-1.47
CCOc1ccc2c(c1)s/c(=N\S(=O)(=O)c1ccc(OC)cc1)n2C(F)F	9.7
Cc1c(NC(=O)Nc2ccc3c(c2)OCO3)cccc1[N+](=O)[O-]	17.3
O=C(O)CCn1cc(/C=N/O)c(-c2cccc([N+](=O)[O-])c2)n1	9.03
CC(NC(=O)CCCc1c[nH]c2ccccc12)c1ccc(F)cc1 (stereo not drawn)	9.53
COc1cc(C(=O)N=C2SC3CS(=O)(=O)CC3N2c2ccccc2)cc(OC)c1OC (stereo not drawn)	21
CCOc1ccccc1N1CCN(C(=S)NC(=O)C23CC4CC(CC(C4)C2)C3)CC1	3.44
O=c1c2c(nc3n1CCS3)c1cc(F)ccc1n2Cc1cc(=O)n2cc(Cl)ccc2n1	-10.7
O=C(O)c1cc(N/N=C/c2c[nH]c3ccccc23)ccc1Cl	10.3
CCCCCOc1ccc(CSCCNC(=S)Nc2ccccc2)cc1	-5.94

SMILES	hERG current change (%, negative = inhibition) at 10uM [%]
C#CCOCCOCCOCCNc1nc(N2CCN(C(=O)[C@H](CCC(=O)O)n3cc(C(N)CC(C)C)nn3)CC2)nc(N2CCN(C(=O)[C@H](CCC(=O)O)n3cc(C(N)CC(C)C)nn3)CC2)n1.Cl (stereo partly drawn)	20.6
COc1ccc(C)cc1NC(=O)C1CCN(S(=O)(=O)c2ccc3c(c2)NC(=O)CO3)CC1	-12.1
O=C(O)c1ccc(N/N=C2/CCSc3ccc(F)cc32)cc1	2.8
CC(=O)CCc1oc2ccccc2c1-c1ccccc1	-1.37
CCCc1cc(C(=O)Nc2cc(Br)ccc2O)no1	6.26
Cc1c(Br)c([N+](=O)[O-])nn1CCCC(=O)Nc1sc2c(c1C(N)=O)CCC(C)C2 (stereo not drawn)	-15.7
Cc1ccc2nc(-c3ccc(SCC(=O)Nc4nc(C)cs4)nc3)[nH]c2c1	-3.66
O=S(=O)(CCN1CCN(c2ccccn2)CC1)c1ccc(Cl)cc1Cl	-24.8
Cc1ccc(-c2nn3cnnc3c3ccccc23)cc1C	-22.1
O=C(N/N=C/c1c(O)n(CCC2=CCCCC2)c(=S)[nH]c1=O)c1ccccc1	7.94
Cc1cccc(OCc2nc(-c3ccccn3)n[nH]2)c1	-6.94
COc1ccc2oc(=O)c(C(C)=O)cc2c1	13.6
COCCOC(=O)C1=C(C)NC(=O)NC1c1c(F)cccc1Cl (stereo not drawn)	7.02
COCCNc1ncnc2c1cnn2Cc1ccc(Cl)cc1	-15.7
O=C(O)CC(NC(=O)C1c2ccccc2Oc2ccccc21)c1ccc(OC2CCCC2)cc1 (stereo not drawn)	11.9
CCOC(=O)c1ccccc1NC(=O)COC(=O)CCNS(=O)(=O)c1ccc(C)c(C)c1	10
COc1ccc2cnnc(SCC(=O)Nc3ccc(C(C)=O)cc3)c2c1OC	-6.69
CC(C)(O)CC[C@@H](O)[C@](C)(O)C1CC[C@@]2(O)C3=CC(=O)[C@]4(O)C[C@@H](O)[C@@H](O)C[C@]4(C)C3CC[C@]12C (stereo partly drawn)	30.1
CCc1ccccc1NC(=O)COc1cccc(-n2cnnn2)c1	-8.5
CCOC(=O)C1=C(C)C2C3C(=O)N(c4ccccc4C)C(=O)C3C1(C)C1C(=O)N(c3ccccc3C)C(=O)C21 (stereo not drawn)	-0.0223
Cc1c(NC(=O)c2cccc(S(=O)(=O)N3CCOCC3)c2)c(=O)n(-c2ccccc2)n1C	3.62

SMILES	hERG current change (%, negative = inhibition) at 10uM [%]
CC(C)CC(NC(=O)COc1ccccc1)C(=O)O (stereo not drawn)	20.4
O=C(O)c1ccc(NC(=O)c2cn(-c3ccccc3)nc2-c2ccccc2)cc1	32.6
O=C(CCCNC(=O)c1ccc(Cl)cc1)NCc1ccc(F)cc1	-19.7
CS(=O)(=O)c1nc([N+](=O)[O-])nn1CCCc1ccccc1	23.6
O=C(CCc1ccccc1)NNC(=O)COc1ccccc1	5.24
O=C(CN1CCOCC1)Nc1cccc(Br)c1	-15.4
Cc1nn(-c2ccccc2)c2nc(N)c(C#N)c(-c3ccc(F)cc3)c12	6.57
Cn1c(CCN2CCCC2)nc2cc(NS(=O)(=O)c3ccc(Cl)cc3)ccc21	-84
O=C1c2ccccc2-c2ccc(C(=O)N3CCCCC3)cc21	-6.85
CCN1CCCc2cc(CN(CCN3CCOCC3)C(=S)Nc3cccc(Cl)c3)ccc21	0.317
C/C(=N\Nc1ccccn1)c1ccc(S(=O)(=O)NCc2ccco2)cc1	-39.1
CCN(C(=O)COC(=O)c1cc(OC)c(OC)cc1[N+](=O)[O-])C1CCS(=O)(=O)C1 (stereo not drawn)	5.76
Clc1ccc(-n2nnnc2CN2CCOCC2)cc1	-3.25
Cc1c(NS(=O)(=O)c2cc(NC(=O)CCN3CCCC(C)C3)ccc2Cl)c(=O)n(-c2ccccc2)n1C (stereo not drawn)	21.9
Cc1sc2nc(SCC(=O)Nc3ccc(S(N)(=O)=O)cc3)[nH]c(=O)c2c1C	-0.66
Cc1c(CC(=O)NCCCC(=O)O)c(=O)oc2cc3c(cc12)CCC(C)(C)O3	-64.5
Cc1c(C(=O)Nc2ccc(F)cc2)sc2ncn(CC(=O)N3CCCCC3)c(=O)c12	1.43
COC(=O)c1c(NC(=O)CSc2ccccc2N)sc(C)c1C	5.65
O=CO.c1ccc2c(c1)CSc1sccc1C2=C1CCNCC1	0.325
N/C(Cc1ccc([N+](=O)[O-])cc1)=N\OC(=O)c1ccc(Br)cc1	-41.5
CCC(=O)Nc1ccc(S(=O)(=O)Nc2ncccn2)cc1	19.8

SMILES	hERG current change (%, negative = inhibition) at 10uM [%]
CC(C)Sc1nc2c(c(=O)[nH]c(=O)n2C)n1CC(O)COc1ccccc1 (stereo not drawn)	11.1
CCCc1nc2oc3c(NCC(C)O)ncnc3c2c2c1CCCC2 (stereo not drawn)	-26.9
Cc1ccc(N(CC(=O)NCc2ccco2)S(=O)(=O)c2ccccc2)cc1	-22
CCOC(=O)c1sc(=S)n(-c2ccc(C)cc2)c1SC	3.25
O=C(NCCCNCc1ccccc1)/C(=N\O)c1ccccc1	-11.4
COc1ccc(S(=O)(=O)Nc2ccc3c(c2)N(C(C)=O)CCC3)cc1OC	11.8
CN(C)C(=O)NC(Nc1cccc([N+](=O)[O-])c1)C(Cl)(Cl)Cl (stereo not drawn)	-27.1
COCCNc1nc2c(c(=O)n(Cc3cccc(Cl)c3)c(=O)n2C)n1C	3.81
COc1ccccc1C1OC2=C(Nc3ccc([N+](=O)[O-])cc3N2)C1=O (stereo not drawn)	-9.97
O=C(Oc1ccc(C(=S)N2CCOCC2)cc1)c1cc([N+](=O)[O-])cc([N+](=O)[O-])c1	8.79
COC(=O)C1=C(c2ccc(C(C)=O)cc2)C[C@@H]2CC[C@H]1N2C(=O)NC1CCCCC1	-27.1
CC1=C(C(=O)Nc2ccc(C)cc2C)C(c2ccc(C)o2)NC(=S)N1 (stereo not drawn)	5.96
COc1ccc(C2=NS(=O)(=O)N(C)C(C(=O)NCc3ccc4c(c3)OCO4)=C2)cc1	-63.3
CCc1noc(C)c1C(=O)Nc1ccc(C)c(S(=O)(=O)N2CCCCCC2)c1	-45.6
O=C(Nc1ccc(C(=O)N2CCCCC2)cc1)c1ccccc1Br	8.24
CCOC(=O)c1nn(-c2ccccc2)c(C)c1C(C)=O	7.24
COC(=O)c1nc(-c2ccc(C)cc2)oc1N(C)C	10.5
CCCCc1nnc(NC(=O)Cc2ccc(S(=O)(=O)N3CCOCC3)s2)s1	3.58
CC(=O)c1sc(NC(=O)CCS(=O)(=O)c2ccccc2)nc1C	8.51
Nc1ccc(C(=O)Nc2cccc(NC(=O)c3ccc(N)cc3)c2)cc1	17.7
CNC(=O)c1nnn(Cc2ccccc2)c1NC(C)=O	0.326
